Data on one molecule can be found in US20240400659A1 (BIOATLA, published 2024).

Assay [1] deals with T1, low-density lipoprotein receptor (UniProt P01130 22-788, limits assumed).
T1 construct: also called LDLR
In words: pH affinity ELISA, coated target, pH 6.0, PBS.

The target of assay [2] is T2, very low-density lipoprotein receptor (UniProt P98155 28-797, limits assumed).
T2 construct: also called VLDLR; VLDR
In words: pH affinity ELISA, coated target, pH 6.0, PBS.

The target in assay [3] is T3, Sortilin (UniProt Q99523 78-755, limits assumed).
T3 sequence (looked up): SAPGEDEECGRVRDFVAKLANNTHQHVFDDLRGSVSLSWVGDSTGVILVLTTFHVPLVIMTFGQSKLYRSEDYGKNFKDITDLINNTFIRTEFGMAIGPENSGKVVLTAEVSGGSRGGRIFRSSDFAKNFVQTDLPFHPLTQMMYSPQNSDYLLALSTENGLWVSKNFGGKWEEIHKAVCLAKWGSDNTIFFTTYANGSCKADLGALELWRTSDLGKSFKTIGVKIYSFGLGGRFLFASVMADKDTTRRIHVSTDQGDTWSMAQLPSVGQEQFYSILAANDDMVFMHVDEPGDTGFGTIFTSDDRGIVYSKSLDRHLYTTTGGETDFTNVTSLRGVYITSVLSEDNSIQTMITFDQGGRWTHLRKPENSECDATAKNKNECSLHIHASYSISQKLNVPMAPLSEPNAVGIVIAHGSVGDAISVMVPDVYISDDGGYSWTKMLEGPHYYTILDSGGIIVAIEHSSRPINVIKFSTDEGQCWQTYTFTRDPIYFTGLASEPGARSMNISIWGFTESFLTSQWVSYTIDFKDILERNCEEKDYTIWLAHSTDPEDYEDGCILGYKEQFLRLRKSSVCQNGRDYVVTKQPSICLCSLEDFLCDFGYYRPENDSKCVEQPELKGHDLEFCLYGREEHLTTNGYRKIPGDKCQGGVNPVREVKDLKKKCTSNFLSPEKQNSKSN
The assay can be described thus: pH affinity ELISA, coated target, pH 6.0, PBS.

Assay [4] has as its target T1, low-density lipoprotein receptor. In words: pH affinity ELISA, coated target, PBS.
For assay [5], the target named is T2, very low-density lipoprotein receptor. In words: pH affinity ELISA, coated target, PBS.
The target in assay [6] is T3, Sortilin. The assay can be described thus: pH affinity ELISA, coated target, PBS.
The target of assay [7] is T1, low-density lipoprotein receptor. In words: pH affinity ELISA, coated target, pH 6.0, PBS + 30 mM sodium bicarbonate.
T1 sequence (P01130 22-788 limits assumed): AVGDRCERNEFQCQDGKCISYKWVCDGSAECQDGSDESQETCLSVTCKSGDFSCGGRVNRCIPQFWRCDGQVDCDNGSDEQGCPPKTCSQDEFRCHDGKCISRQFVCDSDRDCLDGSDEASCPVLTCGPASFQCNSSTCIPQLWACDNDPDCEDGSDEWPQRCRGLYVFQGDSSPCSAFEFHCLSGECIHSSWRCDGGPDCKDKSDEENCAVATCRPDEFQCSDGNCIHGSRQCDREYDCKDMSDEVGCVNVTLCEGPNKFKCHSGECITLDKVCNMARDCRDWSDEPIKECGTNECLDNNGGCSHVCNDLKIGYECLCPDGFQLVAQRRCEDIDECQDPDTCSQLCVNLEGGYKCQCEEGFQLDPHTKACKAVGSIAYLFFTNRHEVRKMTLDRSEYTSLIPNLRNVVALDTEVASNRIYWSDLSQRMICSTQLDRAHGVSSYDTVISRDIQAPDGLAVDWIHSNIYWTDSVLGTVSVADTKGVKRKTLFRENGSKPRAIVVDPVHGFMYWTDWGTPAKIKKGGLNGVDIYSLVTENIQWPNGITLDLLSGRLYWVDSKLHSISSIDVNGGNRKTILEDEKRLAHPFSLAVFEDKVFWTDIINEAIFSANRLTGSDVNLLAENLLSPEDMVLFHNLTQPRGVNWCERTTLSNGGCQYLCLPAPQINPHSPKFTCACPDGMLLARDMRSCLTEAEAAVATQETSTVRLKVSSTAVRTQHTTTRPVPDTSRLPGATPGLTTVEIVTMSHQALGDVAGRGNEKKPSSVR
The target of assay [8] is T2, very low-density lipoprotein receptor. The assay is described as above.
In assay [9] the target is T3, Sortilin. The assay is described as above.
Assay [10] addresses T1, low-density lipoprotein receptor. The assay can be described thus: pH affinity ELISA, coated target, PBS + 30 mM sodium bicarbonate.
Assay [11] deals with T2, very low-density lipoprotein receptor. Described as above.
The target of assay [12] is T3, Sortilin. The assay is described as above.
In assay [13] the target is T1, low-density lipoprotein receptor. In words: pH affinity ELISA, coated target, pH 7.4, PBS.
Assay [14] has as its target T2, very low-density lipoprotein receptor. In words: pH affinity ELISA, coated target, pH 7.4, PBS.
Assay [15] addresses T3, Sortilin. The assay can be described thus: pH affinity ELISA, coated target, pH 7.4, PBS.
The target in assay [16] is T1, low-density lipoprotein receptor. The assay can be described thus: pH affinity ELISA, coated target, pH 7.4, PBS + 30 mM sodium bicarbonate.
Assay [17] has as its target T2, very low-density lipoprotein receptor. The description is as above.
The target in assay [18] is T3, Sortilin. The description is as above.

B1: Apolipoprotein E4 (ligand)
chain: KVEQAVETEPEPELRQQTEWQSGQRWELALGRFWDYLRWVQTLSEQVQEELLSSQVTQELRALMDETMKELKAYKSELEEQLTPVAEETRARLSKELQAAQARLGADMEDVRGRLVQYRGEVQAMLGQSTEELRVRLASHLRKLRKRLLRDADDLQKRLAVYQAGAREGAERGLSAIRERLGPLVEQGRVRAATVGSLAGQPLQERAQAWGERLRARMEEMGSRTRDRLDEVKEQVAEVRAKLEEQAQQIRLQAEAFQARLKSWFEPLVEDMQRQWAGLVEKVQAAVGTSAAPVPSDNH
notes: also called ApoE4; hApoE4
Consider B1, for which the EC50 in assay [1] was 0.6 µg/mL; in assay [2], 0.41 µg/mL; in assay [3] it was 0.38 µg/mL; in assay [7], 1.52 µg/mL; in assay [8] it was 0.48 µg/mL; in assay [9], 1.36 µg/mL. Also, the half-maximal effective concentration (EC50) stood at 3.05 µg/mL in assay [13]; 1.08 µg/mL in [14]; 2.1 µg/mL in assay [15]; 6.56 µg/mL in [16]; 3.1 µg/mL in assay [17]; 7.38 µg/mL in assay [18]. Also, the “Fold change - PBS (EC50 pH 7.4 divided by EC50 pH 6.0)” value in assay [4] was determined as 5.11 fold; in [5], 2.65 fold; in assay [6], 5.55 fold. Moreover, the “Fold change - PBS + sodium bicarb (EC50 pH 7.4 divided by EC50 pH 6.0)” value in assay [10] was 4.32 fold; in assay [11] it was 6.48 fold; in assay [12], 5.45 fold.
